{"source": "paper PMC6286156", "about": "(Cell Calcium, 2018)", "key": {"[1]": {"tested_on": "NAADP-evoked Ca^2+ release", "assay_type": "biochemical, Strongylocentrotus purpuratus"}, "[2]": {"tested_on": "specific ^32P-NAADP binding in sea urchin egg homogenates", "assay": "32P-NAADP radioligand binding in sea urchin egg homogenate", "set-up": "species or system Strongylocentrotus purpuratus", "details": "drug 30 μM, specific 32P-NAADP binding relative to vehicle"}, "[3]": {"tested_on": "NAADP-evoked Ca^2+ release", "assay": "Primary screen of NAADP-evoked Ca2+ release in sea urchin egg homogenate", "assay_type": "biochemical, Strongylocentrotus purpuratus", "details": "compound 25 μM, 6 min preincubation, NAADP 167 nM"}}, "note": "Where a name gives a salt, the structure may show the parent alone."}
{"molecule": "CN1CCC[C@@H]1CCO[C@](C)(c1ccccc1)c1ccc(Cl)cc1", "note": "[Clemastine fumarate, clemastine fumarate]", "values": [{"measurement": "2° Screen (sea urchin) Ca^2+ release log(IC50)", "setting": "[1]", "result": "−4.78 ± 0.09"}, {"measurement": "2° Screen (sea urchin) NAADP binding (% inhibition)", "setting": "[2]", "result": "8.2 ± 3.6", "unit": "%"}, {"measurement": "1° Screen (sea urchin) Ca^2+ release (% NAADP): peak NAADP-evoked Ca2+ release as % of control NAADP response", "setting": "[3]", "result": "13.7 ± 15", "unit": "%"}]}
{"molecule": "OCCN1CCN(CCCN2c3ccccc3Sc3ccc(C(F)(F)F)cc32)CC1", "note": "[Fluphenazine dihydrochloride, fluphenazine dihydrochloride]", "values": [{"measurement": "2° Screen (sea urchin) Ca^2+ release log(IC50)", "setting": "[1]", "result": "−4.97 ± 0.03"}, {"measurement": "2° Screen (sea urchin) NAADP binding (% inhibition)", "setting": "[2]", "result": "3.2 ± 1.5", "unit": "%"}]}
{"molecule": "CCN(CC)CC#CCOC(=O)C(O)(c1ccccc1)C1CCCCC1", "note": "(centres unmarked) [Oxybutynin Chloride, oxybutynin chloride]", "values": [{"measurement": "2° Screen (sea urchin) Ca^2+ release log(IC50)", "setting": "[1]", "result": "−5.07 ± 0.05"}, {"measurement": "2° Screen (sea urchin) NAADP binding (% inhibition)", "setting": "[2]", "result": "−6.0 ± 5.2", "unit": "%"}, {"measurement": "1° Screen (sea urchin) Ca^2+ release (% NAADP): peak NAADP-evoked Ca2+ release as % of control NAADP response", "setting": "[3]", "result": "19.0 ± 10", "unit": "%"}]}
{"molecule": "CN1CCN(CCCN2c3ccccc3Sc3ccc(Cl)cc32)CC1", "note": "[Prochlorperazine dimaleate, prochlorperazine dimaleate salt]", "values": [{"measurement": "2° Screen (sea urchin) Ca^2+ release log(IC50)", "setting": "[1]", "result": "−4.62 ± 0.27"}, {"measurement": "2° Screen (sea urchin) NAADP binding (% inhibition)", "setting": "[2]", "result": "0.0 ± 3.4", "unit": "%"}, {"measurement": "1° Screen (sea urchin) Ca^2+ release (% NAADP): peak NAADP-evoked Ca2+ release as % of control NAADP response", "setting": "[3]", "result": "15.0 ± 12", "unit": "%"}]}
{"molecule": "CSc1ccc2c(c1)N(CCC1CCCCN1C)c1ccccc1S2", "note": "(centres unmarked) [Thioridazine hydrochloride, thioridazine hydrochloride]", "values": [{"measurement": "2° Screen (sea urchin) Ca^2+ release log(IC50)", "setting": "[1]", "result": "−4.77 ± 0.02"}, {"measurement": "2° Screen (sea urchin) NAADP binding (% inhibition)", "setting": "[2]", "result": "−3.3 ± 1.5", "unit": "%"}, {"measurement": "1° Screen (sea urchin) Ca^2+ release (% NAADP): peak NAADP-evoked Ca2+ release as % of control NAADP response", "setting": "[3]", "result": "15.3 ± 17", "unit": "%"}]}
